Experimental data taken from US5441935A, “Growth factor receptors” (Imperial Cancer Research Technology Ltd., priority 1987, dated 1995).
For some of these results: At least one peptide structure holds a part that was inferred or is arguable (an end, a ring closure or a residue). Some entries repeat one wording, which the source may state once for all of them. For some of these results: For at least one compound, name, drawing or mass did not settle the structure. Non-standard residues stand in square brackets, D forms with d. Residues, ends and D or L forms follow the SMILES beside them. Tyr(3-I) = N[C@@H](Cc1ccc(O)c(I)c1)C(=O)O; NMeF = CN[C@@H](Cc1ccccc1)C(=O)O

Key:
Swiss 3T3 cells [1] = test: Rise in cytosolic Ca^2+ concentration ([Ca^2+ ]i), fura-2 fluorescence, in Swiss 3T3 cells; assay type: cell-based, mouse; conditions: for Effect on the rise in [Ca^2+ ]i caused by GRP: GRP 1 nM
H417 = test: Growth of SCLC cell line H417 in serum-free medium; assay type: cell-based, human; conditions: antagonist at 150 μM
H128 = test: Growth of SCLC cell line H128 in serum-free medium; assay type: cell-based, human; conditions: antagonist at 150 μM
H69 cells = test: Growth of SCLC cell line H69 in serum-free medium; assay type: cell-based, human; conditions: antagonist at 150 μM
Swiss 3T3 cells [2] = test: DNA synthesis by [^3 H]thymidine incorporation in Swiss 3T3 cells (GRP-induced mitogenesis); assay type: cell-based, mouse; conditions: for Effect on the concentration of GRP required to produce half-maximal stimulation of DNA synthesis: antagonist at 20 λM (so in the source); for Ability to inhibit mitogenesis stimulated by GRP (relative potency): substance P antagonists tested at 50 μM
Protocol: Cell culture procedure (33), assays of DNA synthesis by ^3 H-thymidine incorporation (34) and ^125 I-GRP binding to intact cells (13) were performed as described previously.
FIG. 3. Inhibition of GRP-induced DNA synthesis by [DPro^2 ]spantide (A) and [DPhe^5 ]spantide (D). […] After 40 hours DNA synthesis was estimated by [^3 H]thymidine incorporation into acid-precipitable material. […] Each point represents the mean of duplicate determinations. […] Values are expressed as a percentage of [^3 H]thymidine incorporation obtained in the absence of antagonists (100%=8.6×10^5 cpm per dish). Each point represents the mean of 4 determinations.

GRP receptor [3] = biological target: T1, GRP receptor (Mus musculus, UniProt P21729); test: Specific binding of [^125 I]GRP to Swiss 3T3 cells
T1 construct: endogenous in cells; host or cells: Swiss 3T3 cells (intact, confluent and quiescent)

GRP receptor [4] = biological target: T1, GRP receptor; conditions: reference (13); read-out: Kd obtained from Scatchard analysis of binding curves; cited from earlier work
[5] = antagonist at 10 μM, double reciprocal plot
[6] = ratio of half-maximal concentrations

T1 sequence (P21729 whole entry): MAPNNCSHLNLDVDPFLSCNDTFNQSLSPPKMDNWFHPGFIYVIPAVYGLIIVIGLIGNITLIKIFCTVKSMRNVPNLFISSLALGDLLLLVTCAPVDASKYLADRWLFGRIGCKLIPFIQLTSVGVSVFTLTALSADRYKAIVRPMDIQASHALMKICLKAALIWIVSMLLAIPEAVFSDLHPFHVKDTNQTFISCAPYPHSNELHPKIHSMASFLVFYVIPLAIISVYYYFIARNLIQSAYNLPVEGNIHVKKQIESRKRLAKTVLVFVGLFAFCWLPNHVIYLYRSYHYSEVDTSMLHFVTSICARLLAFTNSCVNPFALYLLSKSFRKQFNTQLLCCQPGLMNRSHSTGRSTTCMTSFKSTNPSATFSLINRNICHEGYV

Compound: CC(C)C[C@H](NC(=O)[C@H](CC(C)C)NC(=O)[C@@H](Cc1c[nH]c2ccccc12)NC(=O)[C@H](Cc1ccccc1)NC(=O)[C@@H](Cc1c[nH]c2ccccc12)NC(=O)[C@H](CCC(N)=O)NC(=O)[C@H](CCC(N)=O)NC(=O)[C@@H]1CCCN1C(=O)[C@H](CCCCN)NC(=O)[C@H]1CCCN1C(=O)[C@H](N)CCCNC(=N)N)C(N)=O [Antagonist A, D-Arg-D-Pro-Lys-Pro-Gln-Gln-D-Trp-Phe-D-Trp-Leu-Leu-NH2] (H-[dR][dP]KPQQ[dW]F[dW]LL-NH2)
- Effect on the rise in [Ca^2+ ]i caused by GRP (Swiss 3T3 cells [1]; antagonist at 5 μM): not
- Effect on the rise in [Ca^2+ ]i caused by GRP (Swiss 3T3 cells [1]; antagonist at 20 μM): prevented
- Rate of growth of SCLC line H417 (H417): abolished
- Rate of growth of SCLC line H128 (H128): abolished
- Rate of growth of SCLC line H69 (H69 cells): abolished
- Effect on the concentration of GRP required to produce half-maximal stimulation of DNA synthesis (Swiss 3T3 cells [2]): only a slight effect

Compound: CC(C)C[C@H](NC(=O)[C@H](CC(C)C)NC(=O)[C@@H](Cc1c[nH]c2ccccc12)NC(=O)[C@H](Cc1ccccc1)NC(=O)[C@@H](Cc1c[nH]c2ccccc12)NC(=O)[C@H](CCC(N)=O)NC(=O)[C@@H](Cc1ccccc1)NC(=O)[C@@H]1CCCN1C(=O)[C@H](CCCCN)NC(=O)[C@@H]1CCCN1C(=O)[C@H](N)CCCNC(=N)N)C(N)=O [Antagonist D, D-Arg-Pro-Lys-Pro-D-Phe-Gln-D-Trp-Phe-D-Trp-Leu-Leu-NH2] (H-[dR]PKP[dF]Q[dW]F[dW]LL-NH2)
- Potency relative to [DPro^2 ]spantide in the [Ca^2+ ]i assay (Swiss 3T3 cells [1]): at least 4 fold
- Effect on the rise in [Ca^2+ ]i caused by GRP (Swiss 3T3 cells [1]; antagonist at 5 μM): effective
- Effect on the [Ca^2+ ]i response to PDGF (Swiss 3T3 cells [1]; antagonist at 5 μM, PDGF 1 nM): did not prevent a response to PDGF
- Effect on the affinity of the receptors for [^125 I]GRP (GRP receptor [3]; [5]): markedly reduces the affinity
- Effect on the number of binding sites (GRP receptor [3]; [5]): unchanged
- Difference in potency versus [DPro^2 ]spantide in inhibiting [^125 I]GRP binding (GRP receptor [3]; [6]): 6.1 fold
- Effect on the concentration of GRP required to produce half-maximal stimulation of DNA synthesis (Swiss 3T3 cells [2]): markedly increased
- Potency relative to [DPro^2 ]spantide in inhibiting DNA synthesis induced by GRP (Swiss 3T3 cells [2]; [6]): 5.4 fold

Compound: CSCC[C@H](NC(=O)[C@H](CC(C)C)NC(=O)[C@@H](Cc1c[nH]c2ccccc12)NC(=O)[C@H](Cc1ccccc1)NC(=O)[C@@H](Cc1ccccc1)NC(=O)[C@H](CCC(N)=O)NC(=O)[C@H](CCC(N)=O)NC(=O)[C@@H]1CCCN1C(=O)[C@H](CCCCN)NC(=O)[C@H]1CCCN1C(=O)[C@@H](N)CCCNC(=N)N)C(N)=O [C, ArgDProLysProGlnGlnDPhePheDTrpLeuMetNH2]
- Ability to inhibit mitogenesis stimulated by GRP (relative potency) (Swiss 3T3 cells [2]): less potent than either A or D

Compound: CSCC[C@H](NC(=O)[C@H](CC(C)C)NC(=O)[C@@H](Cc1c[nH]c2ccccc12)NC(=O)[C@H](Cc1ccccc1)NC(=O)[C@@H](Cc1c[nH]c2ccccc12)NC(=O)[C@H](CCC(N)=O)NC(=O)[C@H](CCC(N)=O)NC(=O)[C@@H]1CCCN1C(=O)[C@H](CCCCN)NC(=O)[C@H]1CCCN1C(=O)[C@@H](N)CCCNC(=N)N)C(N)=O [E, ArgDProLysProGlnGlnDTrpPheDTrpLeuMetNH2] (H-R[dP]KPQQ[dW]F[dW]LM-NH2)
- Ability to inhibit mitogenesis stimulated by GRP (relative potency) (Swiss 3T3 cells [2]): less potent than either A or D

Compound: CSCC[C@H](NC(=O)[C@@H](Cc1c[nH]c2ccccc12)NC(=O)[C@@H](Cc1c[nH]c2ccccc12)NC(=O)[C@H](Cc1ccccc1)NC(=O)[C@@H](Cc1c[nH]c2ccccc12)NC(=O)[C@H](CCC(N)=O)NC(=O)[C@H](CCC(N)=O)NC(=O)[C@H]1CCCN1)C(N)=O [F, DProGlnGlnDTrpPhe DTrpDTrpMetNH2] (H-[dP]QQ[dW]F[dW][dW]M-NH2)
- Ability to inhibit mitogenesis stimulated by GRP (relative potency) (Swiss 3T3 cells [2]): less potent than either A or D

Compound: CSCC[C@H](NC(=O)[C@H](CC(C)C)NC(=O)[C@@H](Cc1c[nH]c2ccccc12)NC(=O)[C@H](Cc1ccccc1)N(C)C(=O)[C@@H](Cc1c[nH]c2ccccc12)NC(=O)[C@@H](N)CCCNC(=N)N)C(N)=O [G, ArgDTrpMePheDTrpLeuMetNH2] (H-R[dW][NMeF][dW]LM-NH2)
- Ability to inhibit mitogenesis stimulated by GRP (relative potency) (Swiss 3T3 cells [2]): less potent than either A or D

Compound: CSCC[C@H](NC(=O)[C@H](CC(C)C)NC(=O)[C@@H](Cc1c[nH]cn1)NC(=O)[C@H](Cc1ccccc1)NC(=O)[C@@H](Cc1ccccc1)NC(=O)[C@H](CCC(N)=O)NC(=O)[C@H](CCC(N)=O)NC(=O)[C@@H]1CCCN1C(=O)[C@H](CCCCN)NC(=O)[C@H]1CCCN1C(=O)[C@H](N)CCCNC(=N)N)C(N)=O [H, DArgDProLysProGlnGlnDPhePheDHisLeuMetNH2]
- Ability to inhibit mitogenesis stimulated by GRP (relative potency) (Swiss 3T3 cells [2]): less potent than either A or D

Compound: CSCC[C@H](NC(=O)[C@H](CC(C)C)NC(=O)[C@@H](Cc1c[nH]c2ccccc12)NC(=O)[C@H](Cc1ccccc1)NC(=O)[C@@H](Cc1c[nH]c2ccccc12)NC(=O)[C@H](CCC(N)=O)NC(=O)[C@H](CCC(N)=O)NC(=O)[C@H]1CCCN1)C(N)=O [K, DProGlnGlnDTrpPheDTrpLeuMetNH2] (H-[dP]QQ[dW]F[dW]LM-NH2)
- Ability to inhibit mitogenesis stimulated by GRP (relative potency) (Swiss 3T3 cells [2]): less potent than either A or D

Compound: CSCC[C@H](NC(=O)[C@H](CC(C)C)NC(=O)CNC(=O)[C@H](Cc1ccccc1)NC(=O)[C@H](Cc1ccccc1)NC(=O)[C@H](CCC(N)=O)NC(=O)[C@H](CCC(N)=O)NC(=O)[C@@H]1CCCN1C(=O)[C@H](CCCCN)NC(=O)[C@@H]1CCCN1C(=O)[C@@H](N)CCCNC(=N)N)C(N)=O [Substance P, reference compound]
- Inhibition of the binding of GRP to Swiss 3T3 cells (GRP receptor [3]): neither inhibits the binding of GRP

Compound: CSCC[C@H](NC(=O)[C@H](CC(C)C)NC(=O)[C@H](Cc1c[nH]cn1)NC(=O)CNC(=O)[C@@H](NC(=O)[C@H](C)NC(=O)[C@H](Cc1c[nH]c2ccccc12)NC(=O)[C@H](Cc1c[nH]cn1)NC(=O)[C@H](CC(N)=O)NC(=O)CNC(=O)[C@H](CCCNC(=N)N)NC(=O)[C@@H]1CCCN1C(=O)[C@H](Cc1ccc(O)c(I)c1)NC(=O)[C@H](CCSC)NC(=O)[C@H](CCCCN)NC(=O)[C@H](C)NC(=O)[C@H](CC(C)C)NC(=O)[C@@H](NC(=O)[C@@H](NC(=O)CNC(=O)CNC(=O)CNC(=O)[C@@H](NC(=O)[C@H](CO)NC(=O)[C@@H](NC(=O)[C@@H]1CCCN1C(=O)[C@H](C)N)C(C)C)C(C)C)[C@@H](C)O)C(C)C)C(C)C)C(N)=O [^125 I-GRP] (H-APVSVGGGTVLAKM[Tyr(3-I)]PRGNHWAVGHLM-NH2; N-terminus and C-terminus assumed)
- Kd (GRP receptor [4]): 0.5 nM
